Experiments:
BT-20 = experiment: Proliferation-inhibiting effect on tumor cells (SRB or MTT assay); assay type: cell-based; conditions: BT-20, 144 hours, experiment not stated; read-out: IC50
Description: (§1) For cells growing by adherence, SRB assay was used to detect effect of antibody-drug conjugates or camptothecins on the proliferation of tumor cells in vitro cultured. A certain number of cells in exponential growth phase were inoculated in 96-well cell culture plates, and when the cells grew by adherence overnight, antibody drug conjugates or camptothecins of different concentrations were added into the cells. 144 hours later, the cells were fixed with trichloroacetic acid, and then stained with SRB (prepared in 1% glacial acetic acid at a concentration of 4 mg/mL). 10 mM Tris solution was added into each well to solubilize the bound SRB. OD values at 510 nm were read on a microplate reader.
(§2) Inhibition (%)=([…] of control well−OD value of dosed well)/OD value of control well×100%
(§3) For cells growing in suspension, MTT assay was used to detect effect of antibody-drug conjugates or camptothecins on the proliferation of tumor cells in vitro cultured. A certain number of cells in exponential growth phase were inoculated in 96-well cell culture plates, and when the cells grew in suspension overnight, antibody-drug conjugates or camptothecins of different concentrations were added into the cells. 144 hours later, MTT was added to each well of the plates, and the incubation was continued for 4 hours at 37° C. in a 5% CO2 saturated humidity incubator. Next, 100 μL of SDS-isobutanol-HCl solution was added into each well of the plates, and OD values at 570 nm and 690 nm were read on a microplate reader.
(§4) Half maximal inhibitory concentration (IC50) was calculated from the inhibition (%) at those different concentrations using the software Graphpad Prism 8.0. The experiment was repeated once and the data was expressed as mean±SD.

Colo 205 = experiment: as above; assay type: cell-based; conditions: Colo 205, 144 hours, experiment not stated; read-out: IC50
Description: as §1, §2, §3, §4

MDA-MB-468 = experiment: as above; assay type: cell-based; conditions: MDA-MB-468, 144 hours, experiment not stated; read-out: IC50
Description: as §1, §2, §3, §4

MDA-MB-231 = experiment: as above; assay type: cell-based; conditions: MDA-MB-231, 144 hours, experiment not stated; read-out: IC50
Description: as §1, §2, §3, §4

MDA-MB-231/TROP2 = experiment: as above; assay type: cell-based; conditions: MDA-MB-231/TROP2, 144 hours, experiment not stated; read-out: IC50
Description: as §1, §2, §3, §4

BT-474 = experiment: as above; assay type: cell-based; conditions: BT-474, 144 hours, experiment not stated; read-out: IC50
Description: as §1, §2, §3, §4

MCF-7 = experiment: as above; assay type: cell-based; conditions: MCF-7, 144 hours, experiment not stated; read-out: IC50
Description: as §1, §2, §3, §4

[1] = tested on: Trop-2-negative HT-29 cells; experiment: Binding activity to cells negative for Trop-2
Description: (§5) Different concentrations (1, 3, 10, 30, 100, 300, 1000, 3000, 10000, 30000, and 100000 ng/mL) of fluorescently labeled Trop2-ADC-14 and the mAb in Trop2-ADC-14 (i.e., antibody h23-12) were incubated with BxPC-3 cells (purchased from: ATCC) on ice for 1 hour in dark, and then the cells were centrifuged to remove supernatant, washed with PBS, re-suspended, and the fluorescence intensity of the drugs bound to the cells was measured with a flow cytometer (BD ACCURI C6 PLUS). The experiment was repeated once.

BxPC-3 cells = experiment: Apoptosis-inducing effect; assay type: cell-based; conditions: BxPC-3, 120 hours, over the tested concentrations
Description: BxPC-3 cells (purchased from: ATCC) were inoculated into 6-well plates, and then treated with Trop2-ADC-14 (0.020, 0.196, and 1.963 nM), DS-1062 (0.020, 0.196, and 1.963 nM), the mAb in Trop2-ADC-14 (i.e., antibody h23-12) (6.728 nM) and Compound 3 (0.1, 1, and 10 nM) for 120 hours. Next, the cells were harvested, and Annexin-V-FITC and PI were added thereto, and the cells were stained at room temperature for 15 minutes in dark, and finally were re-suspended in the added 300 μl of 1× binding buffer. Apoptosis was detected with a flow cytometer (BD AccuriTMC6 Plus flow cytometer), for which 1×10^4 cells were gated for each group. Experimental data was analyzed using software BD CSampler™ Plus C6.

NCI-N87 = experiment: Proliferation-inhibiting effect on tumor cells (SRB or MTT assay); assay type: cell-based, human; conditions: NCI-N87, 144 hours, experiment not stated; read-out: IC50
Description: as §1, §2, §3, §4

HT-29 = experiment: as above; assay type: cell-based, human; conditions: HT-29, 144 hours, experiment not stated; read-out: IC50
Description: as §1, §2, §3, §4

BxPC-3 = experiment: as above; assay type: cell-based, human; conditions: BxPC-3, 144 hours, experiment not stated; read-out: IC50
Description: as §1, §2, §3, §4

HT1376 = experiment: as above; assay type: cell-based, human; conditions: HT1376, 144 hours, experiment not stated; read-out: IC50
Description: as §1, §2, §3, §4

Calu-3 = experiment: as above; assay type: cell-based, human; conditions: Calu-3, 144 hours, experiment not stated; read-out: IC50
Description: as §1, §2, §3, §4

[2] = tested on: BxPC-3 cells positive for Trop-2; experiment: Internalization function (flow cytometry of fluorescently labeled drug); assay type: cell-based; conditions: BxPC-3, 37° C., 3 to 48 hours, time-dependent
Description: BxPC-3 cells (purchased from: ATCC) were inoculated into 6-well plates, and fluorescently labeled Trop2-ADC-14 and the mAb in Trop2-ADC-14 (i.e., antibody h23-12) each at 1 g/mL were added thereto respectively. The cells were incubated at 37° C. for 3, 6, 12, 18, 24, and 48 hours respectively, and then were digested with trypsin. The Trop2-ADC-14 and the mAb h23-12 not internalized were washed away, and fluorescence intensity was measured with a flow cytometer (BD ACCURI C6 PLUS). The experiment was repeated once.

[3] = tested on: Trop-2-positive BxPC-3 tumor cells; experiment: Binding activity to cells positive for Trop-2 (flow cytometry); conditions: binding to BxPC-3 cells, on ice 1 hour, n = 2
Description: as §5

B1: h23-12 (antibody)
heavy: QVQLVQSGAEVKKPGASVKVSCKASGYTFTSYWMHWVRQAPGQGLEWMGEITPSDNYGSYNQKFKGRVTITRDTSTSTAYMELSSLRSEDTAVYYCARGHGNYVSFDYWGQGTLVTVSSASTKGPSVFPLAPSSKSTSGGTAALGCLVKDYFPEPVTVSWNSGALTSGVHTFPAVLQSSGLYSLSSVVTVPSSSLGTQTYICNVNHKPSNTKVDKRV[not shown - human IgG1 Fc]
light: DIQMTQSPSSLSASVGDRVTITCRASQDISNYLNWYQQKPGKAPKLLIYYTSRLESGVPSRFSGSGSGTDFTLTISSLQPEDFATYFCQQGYTLPPYTFGQGTKLEIKRTVAAPSVFIFPPSDEQLKSGTASVVCLLNNFYPREAKVQWKVDNALQSGNSQESVTEQDSKDSTYSLSSTLTLSKADYEKHKVYACEVTHQGLSSPVTKSFNRGEC
BT-20
  IC50: > 67.3 nM
Colo 205
  IC50: > 67.3 nM
MDA-MB-468
  IC50: > 67.3 nM
MDA-MB-231
  IC50: > 673 nM
MDA-MB-231/TROP2
  IC50: > 67.3 nM
BT-474
  IC50: > 67.3 nM
MCF-7
  IC50: > 67.3 nM
[1]
  binding to the Trop-2-negative HT-29 cells: no obvious binding
BxPC-3 cells
  apoptosis-inducing effect: no significant apoptosis-inducing effect
NCI-N87
  IC50: > 67.3 nM
HT-29
  IC50: > 673 nM
BxPC-3
  IC50: > 67.3 nM
HT1376
  IC50: > 67.3 nM
Calu-3
  IC50: > 67.3 nM
[2]
  internalization: internalized into the cells
[3]
  EC50 (ng/mL, mean ± SD): 1137.5 ± 128.0 ng/mL
